The source of these data is the GPR68 mutational scans of Howard et al. (2025).

B1: GPR68, Q15743 (parent)
chain: MGNITADNSSMSCTIDHTIHQTLAPVVYVTVLVVGFPANCLSLYFGYLQIKARNELGVYLCNLTVADLFYICSLPFWLQYVLQHDNWSHGDLSCQVCGILLYENIYISVGFLCCISVDRYLAVAHPFRFHQFRTLKAAVGVSVVIWAKELLTSIYFLMHEEVIEDENQHRVCFEHYPIQAWQRAINYYRFLVGFLFPICLLLASYQGILRAVRRSHGTQKSRKDQIQRLVLSTVVIFLACFLPYHVLLLVRSVWEASCDFAKGVFNAYHFSLLLTSFNCVADPVLYCFVSETTHRDLARLRGACLAFLTCSRTGRAREAYPLGAPEASGKSGAQGEEPELLTKLHPAFQTPNSPGSGGFPTGRLA

Variants of B1 are the subject of series [1]. The series can be described thus: cAMP reporter score (Enrich2 score, wild type = 0); higher = more signal; HEK293T, FACS bins.
In series [2] the parent is B1. Put plainly: surface expression score (Enrich2 score, wild type = 0); higher = more signal; HEK293T, FACS bins.

Scores whose standard error is large were omitted. The source holds two more conditions with little spread; they are left out. Read del as a deletion of the residues named and ins as an insertion between two positions. For some of these results: How much ogerin was present is not stated here.

Consider A281L, for which the cAMP reporter score in series [1] (pH 5.5) was -0.005; in series [1] (pH 6), -1.43; in series [1] (pH 6, modulator: ogerin), -0.377; in series [1] (pH 6.5, modulator: ogerin), -1.13. For the same variant, in series [2], the surface expression score came to 2.57.

On to A281Y, for which the cAMP reporter score in series [1] (pH 5.5) was -0.872; in series [1] (pH 6), -1.17; in series [1] (pH 6, modulator: ogerin), -0.878; in series [1] (pH 6.5, modulator: ogerin) it was -0.564. The surface expression score in series [2] is -1.9.

For the variant A281Q, the cAMP reporter score in series [1] (pH 5.5) is -1.29; in series [1] (pH 6), -1.39; in series [1] (pH 6, modulator: ogerin), -1.98; in series [1] (pH 6.5, modulator: ogerin) it was -1.47. Besides, the surface expression score in series [2] is -2.19.

Consider A281G, for which the cAMP reporter score in series [1] (pH 5.5) was -1.27; in series [1] (pH 6), -0.983; in series [1] (pH 6, modulator: ogerin), -1.41; in series [1] (pH 6.5, modulator: ogerin), -1.14. Also, the surface expression score in series [2] is -1.01.

Regarding A281H, the cAMP reporter score in series [1] (pH 5.5) was -0.41; in series [1] (pH 6), 0.943.

As to A281E, the cAMP reporter score in series [1] (pH 5.5) was -1.45; in series [1] (pH 6) it was -1.06; in series [1] (pH 6, modulator: ogerin), -2.37; in series [1] (pH 6.5, modulator: ogerin) it was -1.58. In addition, in series [2], the surface expression score was -2.26.

Turning to A281V, the cAMP reporter score in series [1] (pH 5.5) is -1.86; in series [1] (pH 6), -1.36; in series [1] (pH 6, modulator: ogerin), -1.52; in series [1] (pH 6.5, modulator: ogerin), -0.733. For the same variant, the surface expression score in series [2] came to 0.263.

Regarding A281N, the cAMP reporter score in series [1] (pH 5.5) was -1.04; in series [1] (pH 6), -0.185; in series [1] (pH 6, modulator: ogerin), -1.38; in series [1] (pH 6.5, modulator: ogerin), -1.19. In series [2], the surface expression score was -3.58.

A281R: the cAMP reporter score in series [1] (pH 5.5) is -1.74; in series [1] (pH 6), -1.17; in series [1] (pH 6, modulator: ogerin) it was -0.311; in series [1] (pH 6.5, modulator: ogerin) it was -1.63. For the same variant, the surface expression score in series [2] is -3.5.

A281C: the cAMP reporter score in series [1] (pH 5.5) was -0.094; in series [1] (pH 6), -0.647; in series [1] (pH 6, modulator: ogerin) it was 0.476; in series [1] (pH 6.5, modulator: ogerin) it was -0.464. Besides, the surface expression score in series [2] stood at 1.05.

Regarding A281D, the cAMP reporter score was -1.13 in series [1] (pH 5.5); -0.584 in series [1] (pH 6); -1.07 in series [1] (pH 6, modulator: ogerin); -0.835 in series [1] (pH 6.5, modulator: ogerin). Moreover, the surface expression score in series [2] is -1.58.

Take A281K: the cAMP reporter score was -1.51 in series [1] (pH 5.5); -1.38 in series [1] (pH 6); -1.49 in series [1] (pH 6, modulator: ogerin); -0.964 in series [1] (pH 6.5, modulator: ogerin). In series [2], the surface expression score was -1.13.

Take A281W: the cAMP reporter score in series [1] (pH 5.5) was 0.01; in series [1] (pH 6), 0.8; in series [1] (pH 6, modulator: ogerin), 0.353; in series [1] (pH 6.5, modulator: ogerin), 1.46. Further, in series [2], the surface expression score stood at 0.048.

On to A281F, for which the cAMP reporter score was -0.227 in series [1] (pH 5.5); -0.534 in series [1] (pH 6); -0.878 in series [1] (pH 6, modulator: ogerin); -0.819 in series [1] (pH 6.5, modulator: ogerin). In addition, the surface expression score in series [2] was found to be 0.365.

With A281P, the cAMP reporter score in series [1] (pH 5.5) is -0.816; in series [1] (pH 6), 0.443; in series [1] (pH 6, modulator: ogerin) it was -0.458; in series [1] (pH 6.5, modulator: ogerin) it was -0.902. The surface expression score in series [2] was -2.62.

For A281T, the cAMP reporter score in series [1] (pH 5.5) was 0.557; in series [1] (pH 6) it was -0.246; in series [1] (pH 6, modulator: ogerin), 0.106; in series [1] (pH 6.5, modulator: ogerin), -0.989. Moreover, the surface expression score in series [2] was -0.873.

Consider L285A, for which the cAMP reporter score in series [1] (pH 5.5) is -0.642; in series [1] (pH 6) it was -0.399; in series [1] (pH 6, modulator: ogerin), -1.24; in series [1] (pH 6.5, modulator: ogerin) it was -1.13. For the same variant, the surface expression score in series [2] was -2.31.

In the case of L285W, the cAMP reporter score is -0.287 in series [1] (pH 5.5); -0.493 in series [1] (pH 6); -0.159 in series [1] (pH 6, modulator: ogerin); -0.706 in series [1] (pH 6.5, modulator: ogerin). Besides, the surface expression score in series [2] was -1.

With L285F, the cAMP reporter score in series [1] (pH 5.5) was found to be 0.568; in series [1] (pH 6) it was 3.46; in series [1] (pH 6, modulator: ogerin) it was 0.675; in series [1] (pH 6.5, modulator: ogerin), 2.

For L285I, the cAMP reporter score in series [1] (pH 5.5) was determined as 2.43; in series [1] (pH 6, modulator: ogerin) it was 2.15; in series [1] (pH 6.5, modulator: ogerin), 3.29. For the same variant, the surface expression score in series [2] was determined as 0.321.

For the variant L285G, the cAMP reporter score is -1.35 in series [1] (pH 5.5); -0.904 in series [1] (pH 6); -0.317 in series [1] (pH 6, modulator: ogerin); -0.356 in series [1] (pH 6.5, modulator: ogerin). Moreover, the surface expression score in series [2] was -2.21.

Take L285S: the cAMP reporter score in series [1] (pH 5.5) was -0.65; in series [1] (pH 6), -0.831; in series [1] (pH 6, modulator: ogerin) it was -1.58; in series [1] (pH 6.5, modulator: ogerin), -0.469. In addition, the surface expression score in series [2] was -2.42.

For the variant L285N, the cAMP reporter score in series [1] (pH 5.5) is -1.46; in series [1] (pH 6), -1.03; in series [1] (pH 6, modulator: ogerin), -1.66; in series [1] (pH 6.5, modulator: ogerin), -0.546. For the same variant, in series [2], the surface expression score is -2.28.

For the variant L285Q, the cAMP reporter score in series [1] (pH 5.5) is -0.773; in series [1] (pH 6) it was -0.739; in series [1] (pH 6, modulator: ogerin) it was -0.978; in series [1] (pH 6.5, modulator: ogerin) it was -1.13. The surface expression score in series [2] is -2.06.

Take L285H: the cAMP reporter score in series [1] (pH 5.5) is -0.022; in series [1] (pH 6), -0.953; in series [1] (pH 6, modulator: ogerin), -0.617; in series [1] (pH 6.5, modulator: ogerin), -2.11. For the same variant, the surface expression score in series [2] is -2.24.

Consider L285E, for which the cAMP reporter score in series [1] (pH 5.5) was -1.15; in series [1] (pH 6), -0.045; in series [1] (pH 6, modulator: ogerin), -1.14; in series [1] (pH 6.5, modulator: ogerin) it was -0.693. In series [2], the surface expression score was -1.91.

As to L285Y, the cAMP reporter score was -0.527 in series [1] (pH 5.5); -1.5 in series [1] (pH 6); -0.723 in series [1] (pH 6.5, modulator: ogerin). The surface expression score in series [2] was -2.07.

As to L285K, the cAMP reporter score in series [1] (pH 5.5) was -1.26; in series [1] (pH 6) it was -1.35; in series [1] (pH 6, modulator: ogerin), -1.74; in series [1] (pH 6.5, modulator: ogerin) it was -0.9. In series [2], the surface expression score was -2.57.

L285P: the cAMP reporter score in series [1] (pH 5.5) is -1.17; in series [1] (pH 6) it was -0.58; in series [1] (pH 6, modulator: ogerin), -1.43; in series [1] (pH 6.5, modulator: ogerin) it was -0.791. Moreover, in series [2], the surface expression score was -1.27.

As for L285R, the cAMP reporter score is -0.988 in series [1] (pH 5.5); -0.344 in series [1] (pH 6); -1.65 in series [1] (pH 6, modulator: ogerin); -1.01 in series [1] (pH 6.5, modulator: ogerin). The surface expression score in series [2] is -2.73.

On to L285T, for which the cAMP reporter score in series [1] (pH 5.5) was 0.621; in series [1] (pH 6), 0.481; in series [1] (pH 6, modulator: ogerin), 0.588; in series [1] (pH 6.5, modulator: ogerin), -1.07.
